# Measurements taken from paper PMC4336329 (PLoS ONE, 2015).
# Hit rate of the full screen: of about 310,000 compounds, about 14,000 (4.5%) showed an effect of 50% or more. Effects have a minus sign here. Some of the results follow.
# Target: human ether-à-go-go-related gene (hERG) potassium channel (human, UniProt Q12809)
# Test: primary screen, population patch clamp on CHO cells stably expressing hERG
# 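Also: peak tail current of the secondary pulse compared with the same well before compound.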
# Chain of human ether-à-go-go-related gene (hERG) potassium channel (Q12809 whole entry, looked up): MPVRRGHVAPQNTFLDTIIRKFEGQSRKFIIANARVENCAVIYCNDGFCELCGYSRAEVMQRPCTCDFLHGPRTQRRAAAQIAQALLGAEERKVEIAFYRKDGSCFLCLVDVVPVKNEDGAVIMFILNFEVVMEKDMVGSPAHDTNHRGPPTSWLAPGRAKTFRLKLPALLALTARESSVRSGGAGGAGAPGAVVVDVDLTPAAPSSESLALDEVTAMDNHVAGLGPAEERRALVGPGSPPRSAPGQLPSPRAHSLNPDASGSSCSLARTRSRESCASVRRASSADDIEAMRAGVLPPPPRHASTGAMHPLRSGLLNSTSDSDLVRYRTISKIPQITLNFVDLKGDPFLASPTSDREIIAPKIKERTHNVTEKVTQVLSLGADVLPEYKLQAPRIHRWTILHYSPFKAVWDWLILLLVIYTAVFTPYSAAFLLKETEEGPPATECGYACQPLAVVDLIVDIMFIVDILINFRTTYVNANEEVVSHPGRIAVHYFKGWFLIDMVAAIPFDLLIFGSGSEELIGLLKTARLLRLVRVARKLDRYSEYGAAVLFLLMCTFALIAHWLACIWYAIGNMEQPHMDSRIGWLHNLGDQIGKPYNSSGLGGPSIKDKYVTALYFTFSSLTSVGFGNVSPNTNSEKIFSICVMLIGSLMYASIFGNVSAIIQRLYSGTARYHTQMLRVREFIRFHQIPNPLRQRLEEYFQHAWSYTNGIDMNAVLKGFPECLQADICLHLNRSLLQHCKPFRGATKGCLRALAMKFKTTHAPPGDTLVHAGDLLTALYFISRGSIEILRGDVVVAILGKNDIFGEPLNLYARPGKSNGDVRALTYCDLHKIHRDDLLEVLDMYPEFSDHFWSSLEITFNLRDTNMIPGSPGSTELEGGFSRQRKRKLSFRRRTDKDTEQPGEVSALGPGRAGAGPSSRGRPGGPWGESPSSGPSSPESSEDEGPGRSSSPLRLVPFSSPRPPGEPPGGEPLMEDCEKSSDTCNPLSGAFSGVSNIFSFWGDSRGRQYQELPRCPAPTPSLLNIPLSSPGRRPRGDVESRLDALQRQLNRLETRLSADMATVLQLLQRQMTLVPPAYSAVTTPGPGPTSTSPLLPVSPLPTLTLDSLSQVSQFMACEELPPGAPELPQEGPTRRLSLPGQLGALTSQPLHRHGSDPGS
row,SMILES,"hERG current change (%, negative = inhibition) at 10uM [%]"
1,CC(C)c1ccc(C2C(C#N)=C(N)Oc3c2oc(CO)cc3=O)cc1 (centres unmarked),-10.2
2,CCCc1nc2ccccc2c(C(=O)OC(C)C(=O)NCc2ccc3c(c2)OCO3)c1CC (centres unmarked),1.12
3,CCOc1ccc(C(=O)OCc2nnc(-c3cccs3)o2)cc1OC,-54.9
4,CCCCn1c(N)c(N(CCC(C)C)C(=O)c2cccc(-n3cnnn3)c2)c(=O)[nH]c1=O,-7.92
5,COc1ccc(C2(C)NC(=O)N(CC(=O)Nc3ccc(Br)cc3F)C2=O)cc1OC (centres unmarked),17.8
6,Nc1cc(Cl)nc(N/N=C/c2ccccc2[N+](=O)[O-])n1,5.06
7,Cc1ccc(C(=O)NCC(=O)OCC(=O)c2c(N)n(C)c(=O)n(C)c2=O)s1,9.14
8,COc1ccccc1N1CC(C(=O)OCc2nc(N)nc(Nc3ccccc3)n2)CC1=O (centres unmarked),-15.8
9,N#CC(C#N)=Cc1cc2ccccc2nc1N1CCOCC1,20.9
10,COc1ccc(NC(=O)Cc2nc3ccccc3[nH]2)cc1,-25.5
11,Cl.O=C(NCCN1CCCC1)C(c1ccccc1)c1ccccc1,-23.4
12,CCOC(=O)C1=C(N)OC2=C(C(=O)CC(C)(C)C2)C1c1ccco1 (centres unmarked),-14.3
13,Cl.O=C(CN1CCN(c2cccc(C(F)(F)F)c2)CC1)Nc1cccc(C(F)(F)F)c1,-1.14
14,O=C1C2C(C(=O)N1c1ccncc1)C1C=CC2C12CC2 (centres unmarked),0.773
15,O=C(CC1C(=O)NCCN1Cc1cccc(F)c1)NCCCN1CCCC1=O (centres unmarked),-0.642
16,COc1ccc(OC)c(NC2c3ccccc3C(=O)N2Cc2ccc3c(c2)OCO3)c1 (centres unmarked),-19.4
17,CCCCSc1nnc(CNC(=O)C23CC4CC(CC(C4)C2)C3)n1Cc1ccccc1,-29.7
18,Cc1ccc(C(O)c2nccn2C)o1 (centres unmarked),15.4
19,O=S(=O)(/N=C(\c1ccccc1F)N1CCCCC1)c1ccccc1,-8.95
20,Cc1cc(C)c(CSc2ncc(-c3ccc([N+](=O)[O-])cc3)[nH]2)c(C)c1,-10.2
21,N#Cc1nc(-c2ccccc2F)oc1NCCc1ccccc1,20.2
22,Cc1cc(=O)c2n(Cc3ccc(Cl)cc3)nc[n+]2[nH]1.[Cl-],-5.12
23,COc1ccc(N2CCN(C(=O)c3cccs3)CC2)cc1,7.37

row,SMILES,"hERG current change (%, negative = inhibition) at 10uM [%]"
1,CC(=O)Nc1cccc(NC(=O)Cc2nc(-c3ccccc3)sc2-c2ccc(C)cc2)c1,13.1
2,COc1ccccc1N1CCN(C(=O)c2cn(C)c3ccc(S(=O)(=O)N4CCOCC4)cc3c2=O)CC1,0.635
3,Cc1cc(NC(=O)CSc2ccc(F)cc2)no1,6.82
4,Cc1ccc(S(=O)(=O)N2CCCC2C(=O)NC2=NCCS2)cc1 (centres unmarked),11.4
5,CCO[C@@H]1OC(C(=O)O)=C[C@H](c2ccc(Br)cc2)[C@H]1CCCO,20.6
6,COc1cccc(NC(=O)CCS(=O)(=O)c2cc3c(cc2Cl)NC(=O)CO3)c1,-30.9
7,COC(=O)n1c(=O)oc2ccc(S(=O)(=O)N3CCCCC3)cc21,5.68
8,CN1CCN(CC(=O)NC(=O)NC2CCCCC2)CC1,3.76
9,CCC(=O)Nc1cccc(NC(=O)CSc2nnc(-c3ccc(NS(C)(=O)=O)cc3)n2CC)c1,14.4
10,CCCNC(=O)c1cc(S(=O)(=O)N2CCc3ccccc32)ccc1F,-6.05
11,CC1(C)CC(NS(=O)(=O)c2ccc(C(C)(C)C)cc2)CC(C)(C)N1,-6.24
12,Cc1ccc(NC(=O)CNCc2ccccc2)c(Br)c1,0.831
13,COc1ccc(OC)c(S(=O)(=O)N/N=C(/C)c2c[nH]c3ccccc23)c1,14.1
14,CCOC(=O)c1cc2ccc(OC)c(OC)c2c(=O)s1,4.59
15,O=S(=O)(NCCNS(=O)(=O)c1ccc(F)cc1)c1ccc(F)cc1,-18
16,Cn1c(SCC(=O)NNC(=O)c2ccc(Br)cc2)nnc1-c1cccnc1,25.6
17,COc1ccc2c(CN3CC=C(c4ccccc4)CC3)cc(=O)oc2c1,10.8
18,O=C(NCc1cccs1)C1CCCN1C(=O)Nc1ccc(F)cc1 (centres unmarked),7.93
19,COc1cc(N/C(N)=N/c2nc(C)cc(C)n2)cc(OC)c1,-49.8
20,N#C/C(=C(\O)Cc1ccccc1)c1nc2ccccc2[nH]1,15.6
21,COc1ccccc1Nc1nnc(C)c(=O)[nH]1,4.89
22,CC(C)(C)NC(=O)C1CC(=O)OC12CCCCC2 (centres unmarked),4.77
23,COc1ccc(CN2CCSCC2)c(C)c1C,17.6

row,SMILES,"hERG current change (%, negative = inhibition) at 10uM [%]"
1,CN1CCCN(C(=O)c2ccc(Br)cc2)CC1,1.16
2,Cc1ccc(N2C(=O)NC(NC(=O)C3CC3)(C(F)(F)F)C2=O)cc1 (centres unmarked),-13.5
3,O=C(N/N=C/c1c(Cl)nc2ccccn2c1=O)c1cccnc1,5.54
4,Cc1cc(-n2c(SCC(=O)Nc3ccc(Br)cc3)nc3n[nH]c(C)c3c2=N)ccc1Cl,19.7
5,CC(NS(=O)(=O)c1ccc(Br)cc1)C(N)=O (centres unmarked),9.92
6,CSc1nc(-c2ccccc2)c(C#N)c(=O)[nH]1,-5.88
7,O=C(NCCCn1ccnc1)/C(=C\c1ccc(Br)cc1)NC(=O)c1ccccc1,-75.8
8,S=C1NC[C@H](CC2CCCCC2)N1CC1CCCCC1,-8.59
9,c1ccc(Cn2nnnc2CN2CCN(c3ncccn3)CC2)cc1,-12.9
10,CCc1cc2c(=O)c(-c3cnn(-c4ccccc4)c3)c(C)oc2cc1OCC(=O)Nc1cccc(C)c1,5.08
11,COc1cccc(NC(=S)N2CCc3cc(OC)c(OC)cc3C2)c1,1.23
12,CCN(CC)CCNC(=O)C1c2ccccc2Oc2ccccc21.Cl,6.6
13,CCc1cccc(NC(=S)N(CCCOC(C)C)C2CCN(C(C)=O)CC2)c1,-6.1
14,O=C(CSCc1cccc(Br)c1)NC1CC1,-6.25
15,COc1ccccc1C(=O)O[C@H]1[C@H](Cc2ccccc2)NS(=O)(=O)[C@H]2C[C@@H]3C=C[C@]12O3,2.42
16,CCN(CC)c1ccc(C(=O)OCC(=O)N(C)Cc2ccccc2)cc1,-13.9
17,Brc1ccc(C2=Nn3c(nnc3-c3n[nH]c4c3CCC4)SC2)cc1,4.63
18,Cc1ccccc1NC(=O)C(C)OC(=O)CCC(=O)N(CC(C)C)c1c(N)n(CC(C)C)c(=O)[nH]c1=O (centres unmarked),-11.2
19,CNS(=O)(=O)c1ccc(NS(=O)(=O)c2ccccc2F)cc1,21.9
20,O=C1CC(c2ccccc2)CC(=NCCO)/C1=C(\O)CCCN1C(=O)c2ccccc2C1=O (centres unmarked),-71.9
21,CCOC(=O)c1sc(NC(=O)C(CC)OC(=O)c2ccco2)nc1C (centres unmarked),-24.2
22,CCn1c(=O)c([N+](=O)[O-])c(NCC(O)c2ccccc2)c2ccccc21 (centres unmarked),-4.1
23,Cc1ccc(NC(=O)c2cc(C)nc3ccccc23)c(C)c1,-0.323

row,SMILES,"hERG current change (%, negative = inhibition) at 10uM [%]"
1,Cc1cccc(NC(=O)c2ccc(NC(=O)c3ccccc3Br)cc2)c1,12
2,CC1CCCC(C)N1CCNC(=O)Nc1ccc(Cl)cc1 (centres unmarked),-36.8
3,Cc1cccc(NS(=O)(=O)c2ccc(C(=O)N3CC(C)OC(C)C3)cc2)c1C (centres unmarked),-1.13
4,CSc1nnc(-c2cccs2)n1C,-4.11
5,COc1ccc(Cc2nc3ccc(C(=O)N4CCC(N(C)C)C4)cc3o2)cc1 (centres unmarked),11
6,CC(=O)c1ccc(OCc2cc(C(=O)N3CCC(c4ccncc4)CC3)no2)cc1,-28
7,CCc1ccnc(NS(=O)(=O)c2ccc3c(c2)OCCO3)c1,3.52
8,NC(=O)NCCCC(=O)NCC(c1ccccc1Cl)c1c[nH]c2ccccc12 (centres unmarked),18.9
9,COc1ccc(CCC(=O)NNC(=O)Nc2ccccc2Cl)cc1,4.25
10,Cc1cccc(OCCCc2c(C)n[nH]c2C)c1,3.95
11,COc1cccc(NC(=O)Cc2cccs2)c1,14.4
12,Cc1cccc(CSc2nc3c(cc2C#N)CN(C)CC3)c1,-71.2
13,O=C(O)CC1CCCC(c2ccccc2)C1=O (centres unmarked),-12.3
14,CC1=C(C(=O)OCCCCCl)C(c2cc3c(cc2Br)OCO3)NC(=O)N1 (centres unmarked),36.7
15,Cc1ccc2cc(C(c3nnnn3C3CCCC3)N(Cc3cccnc3)Cc3ccco3)c(=O)[nH]c2c1 (centres unmarked),-77.8
16,Cc1c(NC(=O)CN2c3cccc4cccc(c34)S2(=O)=O)c(=O)n(-c2ccccc2)n1C,11.6
17,CC(=O)c1ccc(NC(=O)C(C)N(C)CC(=O)Nc2ccc(N3CCOCC3)cc2)cc1 (centres unmarked),-0.901
18,O=C(N/N=C/c1c(O)n(-c2ccccc2)c(=O)[nH]c1=O)c1ccncc1,16.2
19,N/C(=N\OC(=O)C(c1ccccc1)c1ccccc1)c1cccnc1,-12.8
20,O=C(NCCN1CCOCC1)c1ccc2c(c1)N(Cc1ccccc1)C(=O)CS2,2.4
